In the supplement of paper PMC9446081:
Out of some 39,000 compounds screened, about 220 (0.56%) showed activity. Some of the results follow.
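Further: static incubation at 37 °C against the wild-type strain, values averaged over two biological replicates.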

The compounds below were run on Escherichia coli K-12 BW25113 (assay: relative growth (OD600 normalised to plate interquartile mean) (fraction); higher = less growth inhibition, active = 0.2 or less). Details: 50 µM; LB; incubation time: overnight (16-24 h).
With `C[C@H]1CN([C@@H](C)CO)C(=O)c2cccc(NC(=O)C3CC3)c2O[C@@H]1CN(C)S(=O)(=O)c1cccs1` the relative growth was inactive: 1. With `C[C@H](CO)N1C[C@H](C)[C@H](CN(C)S(=O)(=O)c2cn(C)cn2)Oc2c(NS(=O)(=O)c3ccc(Cl)cc3)cccc2C1=O` the relative growth was inactive: 0.998. For `CN(C)CC(=O)N[C@@H]1C=C[C@@H](CC(=O)NCCN2CCCCC2)O[C@H]1CO`, the relative growth was inactive: 1. For `COc1ccc(S(=O)(=O)Nc2ccc3c(c2)C(=O)N([C@H](C)CO)C[C@@H](C)[C@@H](CN(C)C(=O)NC2CCCCC2)OCCCC[C@@H](C)O3)cc1`, the relative growth was inactive: 0.994. With `C[C@@H]1CN([C@@H](C)CO)C(=O)c2cccc(NC(=O)CCCCCC(=O)Nc3ccccc3N)c2O[C@H]1CN(C)Cc1ccc(-c2ccccc2)cc1` the relative growth was inactive: 1.01. In the case of `COc1cccc(S(=O)(=O)N(C)C[C@@H]2Oc3ncc(C#Cc4ccc(OC)c(OC)c4)cc3C(=O)N([C@H](C)CO)C[C@@H]2C)c1`, the relative growth is reported as inactive: 1. `O=C(N[C@H]1CC[C@H](CCNS(=O)(=O)c2ccc(F)cc2)O[C@H]1CO)C1CC1` was tested, and the relative growth was inactive: 0.991. `CC=C(C(=CC)c1ccc(O)cc1)c1ccc(O)cc1` was tested, and the relative growth was inactive: 0.953. `C[C@H]1CCCCO[C@H](CN(C)S(=O)(=O)c2cn(C)cn2)[C@@H](C)CN([C@@H](C)CO)C(=O)c2cc(NC(=O)Nc3cccc4ccccc34)ccc2O1` was tested, and the relative growth was inactive: 1.02. For `COc1ccc(NC(=O)Nc2ccc3c(c2)CC(=O)N([C@H](C)CO)C[C@@H](C)[C@@H](CN(C)Cc2ccc(Oc4ccccc4)cc2)O3)cc1`, the relative growth was inactive: 1.01. `C[C@H](CO)N1C[C@H](C)[C@@H](CN(C)Cc2ccc(C(=O)O)cc2)Oc2c(NC(=O)c3cnccn3)cccc2C1=O` was tested, and the relative growth was inactive: 1. With `CCCC#Cc1cnc2c(c1)C(=O)N([C@@H](C)CO)C[C@H](C)[C@@H](CN(C)S(=O)(=O)c1cccc(OC)c1)O2` the relative growth was inactive: 1.02. In the case of `C[C@@H]1CN([C@H](C)CO)C(=O)c2cccc(NS(=O)(=O)c3ccc(F)cc3)c2O[C@H]1CN(C)Cc1ccc(Oc2ccccc2)cc1`, the relative growth is reported as inactive: 1.02. With `CCNC(=O)C[C@H]1CC[C@@H]2[C@H](COC[C@@H](O)CN2C(=O)Nc2c(C)noc2C)O1` the relative growth was inactive: 1.01. In the case of `CN(C)CC(=O)N1[C@@H]2c3ccc(C4=CCCC4)c(=O)n3C[C@H]1[C@H](CO)[C@H]2C(=O)NCC1CC1`, the relative growth is reported as inactive: 0.978. For `C[C@H]1CCCCO[C@@H](CN(C)Cc2ccncc2)[C@@H](C)CN([C@@H](C)CO)C(=O)c2cc(NC(=O)Nc3cccc4ccccc34)ccc2O1`, the relative growth was inactive: 1.02. In the case of `COc1ccc(-c2cc(=O)c3c(O)cc(O)c(-c4cc(-c5cc(=O)c6c(O)cc(O)cc6o5)ccc4OC)c3o2)cc1`, the relative growth is reported as inactive: 1.01. For `COc1ccccc1NC(=O)N(C)C[C@@H]1Oc2ncc(Br)cc2C(=O)N([C@@H](C)CO)C[C@H]1C`, the relative growth was inactive: 1.02. For `C[C@H]1CN([C@@H](C)CO)C(=O)Cc2cc(NC(=O)Nc3ccc(C(F)(F)F)cc3)ccc2O[C@@H]1CN(C)C(=O)Nc1ccc2c(c1)OCO2`, the relative growth was inactive: 0.978. `CSc1nn(C)c2cnn(C)c(=O)c12` was tested, and the relative growth was inactive: 0.982. In the case of `C[C@@H]1CN([C@H](C)CO)C(=O)c2cc(NC(=O)Cc3ccccc3)ccc2O[C@@H](C)CCCCO[C@H]1CN(C)Cc1ccc(C(=O)O)cc1`, the relative growth is reported as inactive: 0.926. For `Cc1ccc(S(=O)(=O)Nc2ccc3c(c2)C(=O)N([C@@H](C)CO)C[C@H](C)[C@H](CN(C)C(=O)Cc2ccccc2)OCCCC[C@@H](C)O3)cc1`, the relative growth was inactive: 1.02. For `C[C@H]1CN([C@@H](C)CO)C(=O)c2ccccc2-c2ccccc2CO[C@H]1CN(C)Cc1cccc(C(F)(F)F)c1`, the relative growth was inactive: 1. `CO[C@@H]1CN(C)C(=O)c2ccc(NS(=O)(=O)c3cccc(C)c3)cc2OC[C@@H](C)N(Cc2cc(F)ccc2F)C[C@H]1C` was tested, and the relative growth was inactive: 1.03. `C[C@H]1CN([C@@H](C)CO)C(=O)c2cc(-c3cncnc3)cnc2O[C@H]1CN(C)C(=O)Nc1ccc2c(c1)OCO2` was tested, and the relative growth was inactive: 1.01. With `C[C@@H]1CN([C@@H](C)CO)C(=O)Cc2cc(NC(=O)Nc3ccc4c(c3)OCO4)ccc2O[C@H]1CN(C)Cc1ccc(-c2ccccc2)cc1` the relative growth was inactive: 1.02. In the case of `CCC(=O)Nc1ccc2c(c1)C(=O)N(C)C[C@@H](OC)[C@@H](C)CN(C(=O)CN1CCOCC1)[C@H](C)CO2`, the relative growth is reported as inactive: 0.992. In the case of `C[C@H](CO)N1C[C@H](C)[C@@H](CN(C)Cc2ccc(C(=O)O)cc2)OCCCC[C@H](C)Oc2ccc(NC(=O)Nc3ccc(C(F)(F)F)cc3)cc2C1=O`, the relative growth is reported as inactive: 0.995. In the case of `O=C(C[C@@H]1CC[C@@H]2[C@H](COC[C@H](O)CN2S(=O)(=O)c2cccc(Cl)c2)O1)NCc1ccncn1`, the relative growth is reported as inactive: 0.996. For `Cc1[nH]c(=O)[nH]c(=O)c1S(=O)(=O)N1CCC[C@H](C(=O)NCc2ccc3c(c2)OCO3)C1`, the relative growth was inactive: 1.02. `O=C(C[C@@H]1C[C@@H]2c3cc(NS(=O)(=O)c4ccc(F)cc4)ccc3O[C@@H]2[C@@H](CO)O1)N1CCOCC1` was tested, and the relative growth was inactive: 1.01. For `C[C@@H]1CCCCO[C@@H](CN(C)S(=O)(=O)c2cccs2)[C@@H](C)CN([C@@H](C)CO)C(=O)c2cc(NS(=O)(=O)c3ccc(Cl)cc3)ccc2O1`, the relative growth was inactive: 1.03. In the case of `COc1cccc(NC(=O)N2C[C@@H](O)COC[C@H]3O[C@H](CC(=O)NCCCN4CCOCC4)CC[C@@H]32)c1`, the relative growth is reported as inactive: 0.921. For `OCc1ccc(O[C@@H]2O[C@H](CO)[C@@H](O)[C@H](O)[C@H]2O)cc1`, the relative growth was inactive: 1. In the case of `C[C@H]1CCCCO[C@H](CN(C)C(=O)Nc2cccc3ccccc23)[C@@H](C)CN([C@@H](C)CO)C(=O)c2cc(NS(=O)(=O)c3ccccc3)ccc2O1`, the relative growth is reported as inactive: 1.02. For `C[C@@H]1CN([C@H](C)CO)C(=O)c2cc(NC(=O)c3ccccc3)ccc2O[C@@H](C)CCCCO[C@@H]1CN(C)C(=O)Nc1cccc2ccccc12`, the relative growth was inactive: 1.05. With `Cc1noc(C)c1NC(=O)Nc1ccc2c(c1)C(=O)N([C@@H](C)CO)C[C@@H](C)[C@H](CN(C)S(=O)(=O)c1ccccc1)OCCCC[C@H](C)O2` the relative growth was inactive: 1.03.
